Test results published in PMC4336329 (PLoS ONE, 2015).
Among all 310,000 compounds or so, about 14,000 (4.5%) showed an effect of 50% or more. Effects have a minus sign here. The list shows a part of the results.
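Further: peak tail current of the secondary pulse compared with the same well before compound.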

These compounds were tested against human ether-à-go-go-related gene (hERG) potassium channel (human, UniProt Q12809) (assay: primary screen, population patch clamp on CHO cells stably expressing hERG).
Sequence of human ether-à-go-go-related gene (hERG) potassium channel (Q12809 whole entry, looked up): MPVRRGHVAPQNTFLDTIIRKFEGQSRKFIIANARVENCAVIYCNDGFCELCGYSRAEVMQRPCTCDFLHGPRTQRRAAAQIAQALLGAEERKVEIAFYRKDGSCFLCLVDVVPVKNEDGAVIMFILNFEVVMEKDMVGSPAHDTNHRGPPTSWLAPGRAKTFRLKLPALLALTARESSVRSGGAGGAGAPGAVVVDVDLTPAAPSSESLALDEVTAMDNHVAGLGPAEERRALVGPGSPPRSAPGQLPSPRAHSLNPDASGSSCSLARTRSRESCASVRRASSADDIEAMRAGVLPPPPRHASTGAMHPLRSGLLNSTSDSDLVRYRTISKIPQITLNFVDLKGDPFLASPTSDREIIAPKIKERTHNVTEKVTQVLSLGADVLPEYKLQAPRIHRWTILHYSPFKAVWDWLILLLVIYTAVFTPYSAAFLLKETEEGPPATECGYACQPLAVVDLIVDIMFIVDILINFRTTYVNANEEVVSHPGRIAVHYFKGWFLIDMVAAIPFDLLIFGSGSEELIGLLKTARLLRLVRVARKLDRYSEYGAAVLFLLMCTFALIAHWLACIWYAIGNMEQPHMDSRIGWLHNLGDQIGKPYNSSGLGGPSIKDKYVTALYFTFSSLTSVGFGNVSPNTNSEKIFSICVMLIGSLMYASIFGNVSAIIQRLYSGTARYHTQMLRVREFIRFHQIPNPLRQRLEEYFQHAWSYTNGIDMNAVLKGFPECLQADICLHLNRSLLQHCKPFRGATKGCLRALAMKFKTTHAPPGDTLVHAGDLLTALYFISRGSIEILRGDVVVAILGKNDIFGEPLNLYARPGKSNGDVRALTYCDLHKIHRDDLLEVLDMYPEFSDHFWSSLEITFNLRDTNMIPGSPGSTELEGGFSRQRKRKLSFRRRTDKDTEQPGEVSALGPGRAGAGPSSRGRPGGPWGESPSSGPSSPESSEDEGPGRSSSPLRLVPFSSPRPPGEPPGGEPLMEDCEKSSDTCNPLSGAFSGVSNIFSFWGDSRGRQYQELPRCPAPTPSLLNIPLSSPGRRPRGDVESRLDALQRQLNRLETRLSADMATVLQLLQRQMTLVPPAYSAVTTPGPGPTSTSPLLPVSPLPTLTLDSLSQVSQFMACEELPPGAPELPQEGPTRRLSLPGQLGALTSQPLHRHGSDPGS
For `Cc1ccc(C(=O)Nc2cccc(NC(=O)c3ccc(C)o3)n2)o1`, the “hERG current change (%, negative = inhibition) at 10uM” value was -37.3%.
For `O=[N+]([O-])c1ccccc1OCCN1CCOCC1`, the “hERG current change (%, negative = inhibition) at 10uM” value was -1.28%.
For `COc1ccccc1C(=O)N/C(=C\c1ccc(Br)cc1)C(=O)NCCO`, the “hERG current change (%, negative = inhibition) at 10uM” value was -28.5%.
In the case of `CC1CCCCN1C(=O)Cn1cc(C#N)c2ccccc21` (centres unmarked), the “hERG current change (%, negative = inhibition) at 10uM” value is reported as 5.63%.
For `O=C(C[n+]1ccccc1)N/N=C/c1ccco1.[Cl-]`, the “hERG current change (%, negative = inhibition) at 10uM” value was 7.8%.
`CCOC(=O)NC(=O)C(=CNc1ccccc1C)C(=O)NC(=O)OCC` was tested, and the “hERG current change (%, negative = inhibition) at 10uM” value was -19.8%.
`CCc1cc2c(=O)c(-c3cnn(-c4ccccc4)c3)c(C)oc2cc1OCC(=O)Nc1ccc(F)c(F)c1` was tested, and the “hERG current change (%, negative = inhibition) at 10uM” value was 5.02%.
With `CCCCCNC(=O)C(C)NS(=O)(=O)c1ccc(OC)cc1` (centres unmarked) the “hERG current change (%, negative = inhibition) at 10uM” value was -6.87%.
In the case of `c1ccc(-c2nnc(-c3ccccc3)nn2)cc1`, the “hERG current change (%, negative = inhibition) at 10uM” value is reported as 5.69%.
`Clc1cccc(OCCN2CCNCC2)c1.O=C(O)C(=O)O` was tested, and the “hERG current change (%, negative = inhibition) at 10uM” value was -6.36%.
With `CCCC(=O)Nc1cccc(NC(=O)c2ccc3c(c2)OCCO3)c1` the “hERG current change (%, negative = inhibition) at 10uM” value was 5.87%.
For `COc1ccc(C(C[N+](=O)[O-])c2c(-c3ccccc3)cc3ccccn23)c(OC)c1` (centres unmarked), the “hERG current change (%, negative = inhibition) at 10uM” value was -3.97%.
In the case of `CCOc1ccc(N2CC(O)=C(c3ccccc3)C2=N)cc1`, the “hERG current change (%, negative = inhibition) at 10uM” value is reported as -10.4%.
With `CCOC(=O)Cc1c(C)nc(-c2ccccc2)[nH]c1=O` the “hERG current change (%, negative = inhibition) at 10uM” value was 4.89%.
With `COc1ccc2c(Cl)c(-c3nnc4n3CCCCC4)sc2c1` the “hERG current change (%, negative = inhibition) at 10uM” value was -51.2%.
`CCc1ccc2[nH]c(=O)c(CN(Cc3ccccc3)C(=O)Nc3ccccc3OC)cc2c1` was tested, and the “hERG current change (%, negative = inhibition) at 10uM” value was 4.2%.
For `Cc1nc2sccn2c(=O)c1S(=O)(=O)Nc1ccc(N2CCN(C)CC2)cc1`, the “hERG current change (%, negative = inhibition) at 10uM” value was 21%.
With `Cc1cccc(OP(N)(=O)Oc2cccc(C)c2C)c1C` the “hERG current change (%, negative = inhibition) at 10uM” value was 12.5%.
In the case of `CC1(C)Cc2cccc(OCC(=O)NCc3cccs3)c2O1`, the “hERG current change (%, negative = inhibition) at 10uM” value is reported as -0.101%.
With `Cc1onc(-c2ccccc2Cl)c1C(=O)Nc1ccc(Cl)cn1` the “hERG current change (%, negative = inhibition) at 10uM” value was 1.42%.
`CC1=C(C(=O)N(C)CCC#N)C2(CCCCC2)OC1=O` was tested, and the “hERG current change (%, negative = inhibition) at 10uM” value was -4.85%.
For `COCC(C)NC(=S)N1CCN(c2ccccc2Cl)CC1` (centres unmarked), the “hERG current change (%, negative = inhibition) at 10uM” value was 3.38%.
For `N#Cc1c(-c2ccccc2)nc(SCc2nc(N)nc(N3CCCCC3)n2)[nH]c1=O`, the “hERG current change (%, negative = inhibition) at 10uM” value was -5.19%.
`CN(c1ccc(OCC(=O)NCc2cccnc2)cc1)S(=O)(=O)c1ccc(Cl)cc1` was tested, and the “hERG current change (%, negative = inhibition) at 10uM” value was -58.4%.
In the case of `Clc1cccc(Cl)c1CSc1nnc2ccccn12`, the “hERG current change (%, negative = inhibition) at 10uM” value is reported as 2.94%.
With `Cc1cc(C)nc(-n2nc(C)cc2NC(=O)CN2CCCC(C)C2)n1` (centres unmarked) the “hERG current change (%, negative = inhibition) at 10uM” value was -56%.
For `O=C(CCN1CCOCC1)NNC(=O)/C(=C/c1ccccc1)NC(=O)c1ccccc1`, the “hERG current change (%, negative = inhibition) at 10uM” value was -3.16%.
With `COc1ccc(CC2(CO)CCN(CC3=CC[C@H]4C[C@@H]3C4(C)C)CC2)cc1` the “hERG current change (%, negative = inhibition) at 10uM” value was -58.7%.
With `CC(=O)c1ccc(Sc2nnnn2-c2ccccc2)c([N+](=O)[O-])c1` the “hERG current change (%, negative = inhibition) at 10uM” value was -31.5%.
In the case of `CCCc1[nH]nc2c1C(c1ccc(OC(=O)c3ccco3)cc1)C(C#N)=C(N)O2` (centres unmarked), the “hERG current change (%, negative = inhibition) at 10uM” value is reported as -28.2%.
For `Cc1ccc(S(=O)(=O)N/N=C/c2cnn(C)c2C)cc1`, the “hERG current change (%, negative = inhibition) at 10uM” value was 8.21%.
`N#Cc1c(C(F)(F)F)cc(-c2ccc(Cl)c(Cl)c2)nc1SCCN1CCOCC1` was tested, and the “hERG current change (%, negative = inhibition) at 10uM” value was 6.62%.
With `COc1cccc(CNC(=O)CCC2CCCN(Cc3cc4ccccc4o3)C2)c1` (centres unmarked) the “hERG current change (%, negative = inhibition) at 10uM” value was -75.6%.
In the case of `COC(=O)C(C)(C(=O)OC)c1ccc(C(F)(F)F)cc1[N+](=O)[O-]`, the “hERG current change (%, negative = inhibition) at 10uM” value is reported as 22.7%.
In the case of `CCOc1ccc(CCNC(=O)CCC(=O)N2CCOc3ccc(C)cc32)cc1OCC`, the “hERG current change (%, negative = inhibition) at 10uM” value is reported as -13.5%.
For `COc1ccc(N(C(=O)c2ccco2)C(C(=O)NC2CCCC2)c2ccncc2)cc1OC` (centres unmarked), the “hERG current change (%, negative = inhibition) at 10uM” value was 5.24%.
For `Cc1ccc(/C=C\c2nccc3c2[nH]c2ccccc23)cc1`, the “hERG current change (%, negative = inhibition) at 10uM” value was -19.5%.
`COC(=O)Cc1c(O)ccn(Cc2ccc3c(c2)OCO3)c1=O` was tested, and the “hERG current change (%, negative = inhibition) at 10uM” value was 37.3%.
With `COc1ccc(OC)c(S(=O)(=O)NCC2CCCO2)c1` (centres unmarked) the “hERG current change (%, negative = inhibition) at 10uM” value was 9.09%.
For `COCCNC(=O)CSc1nc(-c2ccccc2)cs1`, the “hERG current change (%, negative = inhibition) at 10uM” value was -7.95%.
`N#Cc1ccc(/C=N/NC(=O)CCc2ccc(S(=O)(=O)N3CCOCC3)cc2)cc1` was tested, and the “hERG current change (%, negative = inhibition) at 10uM” value was -49.1%.
`COc1cccc(C2NC(=O)NC(C)=C2C(=O)OCC2CCCO2)c1` (centres unmarked) was tested, and the “hERG current change (%, negative = inhibition) at 10uM” value was 1.88%.
`CC1CCC(=NNC(=O)c2ccccc2-n2cccc2)CC1` (centres unmarked) was tested, and the “hERG current change (%, negative = inhibition) at 10uM” value was -5.88%.
With `Cc1cc(C)cc(N(CC(=O)N2CCN(c3ccccc3)CC2)S(=O)(=O)c2c(C)noc2C)c1` the “hERG current change (%, negative = inhibition) at 10uM” value was -34.6%.
With `Cc1ccccc1C(=O)NCCCNC(=O)c1ccccc1C` the “hERG current change (%, negative = inhibition) at 10uM” value was 6.58%.
In the case of `NC(=O)CSc1nnc(CNc2cccc(Cl)c2)n1CCc1ccccc1`, the “hERG current change (%, negative = inhibition) at 10uM” value is reported as -17.6%.
In the case of `Cc1ccc(C)c(N2CC(=O)N(c3cc(C)ccc3C)CC2=O)c1`, the “hERG current change (%, negative = inhibition) at 10uM” value is reported as 11.4%.
In the case of `CC(C)CC(=O)Nc1cc(C(F)(F)F)ccc1N1CCOCC1`, the “hERG current change (%, negative = inhibition) at 10uM” value is reported as 4.35%.
`COc1cccc(SCc2noc(C(=O)NC(C)C)c2C(=O)O)c1` was tested, and the “hERG current change (%, negative = inhibition) at 10uM” value was -2.25%.
In the case of `O=C(c1cc(COc2cccc(C(F)(F)F)c2)on1)N1CCc2ccccc2C1`, the “hERG current change (%, negative = inhibition) at 10uM” value is reported as 10.4%.
With `COc1cc(OC)nc(NC(=O)CS(=O)(=O)c2ccccc2)n1` the “hERG current change (%, negative = inhibition) at 10uM” value was -4.12%.
With `CCOC(=O)N1CCN(S(=O)(=O)c2ccc(OC)c(C(=O)N3CCCCC3)c2)CC1` the “hERG current change (%, negative = inhibition) at 10uM” value was 3.28%.
For `CC(C)c1ccccc1NC(=O)CCc1nc2ccccc2s1`, the “hERG current change (%, negative = inhibition) at 10uM” value was -19.5%.
`Cn1cc(Cl)c(/C(N)=N/OC(=O)c2ccccc2C(F)(F)F)n1` was tested, and the “hERG current change (%, negative = inhibition) at 10uM” value was 14.2%.
`CCN1C(=O)[C@H]2[C@@H](c3ccc(C)cc3)N3C(=O)N(c4ccc(C(F)(F)F)cc4)C(=O)[C@@]3(CC)[C@H]2C1=O` was tested, and the “hERG current change (%, negative = inhibition) at 10uM” value was 14.1%.
For `O=C(O)C1C2CCC(O2)C1C(=O)NCc1ccncc1` (centres unmarked), the “hERG current change (%, negative = inhibition) at 10uM” value was 8.42%.
